# Results as given in the supplement of paper PMC4604168 (melanoma cell lines).
# This is one part of the list. Repeats are few or missing, and single values can be far off.
# Test system: SkMel5
# Experiment: cell count relative to DMSO control; melanoma cells; higher = more viable cells
# Conditions: library dose: low library concentration; 72 h
# 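Also: cell number obtained by counting DAPI-stained nuclei in high-throughput microscope images with image analysis software, screen run in 1,536-well plates.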
row,Compound,cell count [%]
1,"Cn1c(Nc2ccc(C(F)(F)F)cc2)nc2cc(Oc3ccnc(-c4ncc(C(F)(F)F)[nH]4)c3)ccc21 + COc1ccc2c(c1)CCC1C2CCC2(C)C(NCCCCCCN3C(=O)C=CC3=O)CCC12 [U73122] (first compound 0.08 µM, partner dose 0.4 µM)",72.7
2,"Cn1c(Nc2ccc(C(F)(F)F)cc2)nc2cc(Oc3ccnc(-c4ncc(C(F)(F)F)[nH]4)c3)ccc21 + O=C(O)C(=O)Nc1sc2c(c1C(=O)O)CCNC2 [TCS401] (first compound 0.08 µM, partner dose 1.66667 µM)",80
3,"O=C(CCCCCCC(=O)Nc1ccccc1)NO [vorinostat] + Oc1cc(-c2nc(-c3ccccc3)[nH]c2-c2ccncc2)ccc1Cl [L779450] (first compound 0.08 µM, partner dose 0.2 µM)",92.8
4,"O=C(CCCCCCC(=O)Nc1ccccc1)NO [vorinostat] + O=C1NC(=O)/C(=C/c2ccc(-c3ccc(F)cc3O)o2)S1 [AS252424] (first compound 0.08 µM, partner dose 1 µM)",78.3
5,"COCC[n+]1c2c(n(Cc3cnccn3)c1C)C(=O)c1ccccc1C2=O + Oc1nc(-c2ccc(C(F)(F)F)cc2)nc2c1CSCC2 [XAV939] (first compound 0.0004 µM, partner dose 2 µM)",70.8
6,"C#Cc1cccc(Nc2ncnc3cc(OCCOC)c(OCCOC)cc23)c1 [erlotinib] + CCN(CC)CCCCNc1ncc2cc(-c3cc(OC)cc(OC)c3)c(NC(=O)NC(C)(C)C)nc2n1 [PD173074] (first compound 0.8 µM, partner dose 0.1 µM)",100
